Results are given in words; binding and its absence hold for the method and conditions named. Binding seen in cells or lysates may run through a third protein.
How the values were obtained:
Experiment in all cases: co-IP; endogenous proteins; anti-MTR4 antiserum, anti-RRP46 antibody or anti-RRP45 antiserum on beads, nuclear extracts of HeLa cells (Control, RRP6, MPP6, RRP6/MPP6 or DIS3 KD) and of HeLa Flp-In T-REx cells (MPP6 KD with FLAG only, FLAG-MPP6 full-length or ΔN35), overnight at 4°C; immunoblot
[1] = biological target: RRP45 (human (endogenous in HeLa)) (UniProt Q06265)
[2] = biological target: RRP46 (human (endogenous in HeLa)) (UniProt Q9NQT4)
[3] = biological target: T1, MTR4 (human (endogenous in HeLa)) (UniProt P42285)
T1 sequence: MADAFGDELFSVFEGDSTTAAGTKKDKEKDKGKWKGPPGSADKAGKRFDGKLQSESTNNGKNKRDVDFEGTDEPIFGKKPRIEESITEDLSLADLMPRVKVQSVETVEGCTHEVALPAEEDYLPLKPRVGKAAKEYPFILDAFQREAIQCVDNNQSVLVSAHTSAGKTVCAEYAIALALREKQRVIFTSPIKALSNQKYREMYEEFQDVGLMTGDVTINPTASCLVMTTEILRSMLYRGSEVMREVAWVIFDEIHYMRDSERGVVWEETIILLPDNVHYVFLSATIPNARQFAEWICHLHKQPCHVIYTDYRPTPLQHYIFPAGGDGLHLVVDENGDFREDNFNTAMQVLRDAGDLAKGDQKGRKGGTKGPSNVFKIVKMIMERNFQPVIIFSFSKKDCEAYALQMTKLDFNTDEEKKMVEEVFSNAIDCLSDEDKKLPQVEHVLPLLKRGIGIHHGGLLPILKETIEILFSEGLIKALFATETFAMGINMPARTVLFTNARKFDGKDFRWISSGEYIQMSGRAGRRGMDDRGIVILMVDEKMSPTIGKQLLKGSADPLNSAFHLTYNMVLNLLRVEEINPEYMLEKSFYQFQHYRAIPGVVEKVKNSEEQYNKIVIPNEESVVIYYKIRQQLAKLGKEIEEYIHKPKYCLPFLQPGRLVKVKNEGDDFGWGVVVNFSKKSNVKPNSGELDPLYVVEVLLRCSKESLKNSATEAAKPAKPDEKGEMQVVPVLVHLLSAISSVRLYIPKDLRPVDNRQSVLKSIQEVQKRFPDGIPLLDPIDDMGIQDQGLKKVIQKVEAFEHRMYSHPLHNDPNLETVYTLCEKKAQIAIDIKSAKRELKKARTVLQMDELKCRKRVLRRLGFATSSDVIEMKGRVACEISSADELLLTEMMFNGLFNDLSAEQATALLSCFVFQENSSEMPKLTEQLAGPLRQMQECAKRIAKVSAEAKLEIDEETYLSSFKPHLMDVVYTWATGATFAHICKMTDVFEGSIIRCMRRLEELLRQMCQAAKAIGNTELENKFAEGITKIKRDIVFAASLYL

Protein sequences, listed by entry. Tags and fused reporters are not part of them.
UniProt Q06265: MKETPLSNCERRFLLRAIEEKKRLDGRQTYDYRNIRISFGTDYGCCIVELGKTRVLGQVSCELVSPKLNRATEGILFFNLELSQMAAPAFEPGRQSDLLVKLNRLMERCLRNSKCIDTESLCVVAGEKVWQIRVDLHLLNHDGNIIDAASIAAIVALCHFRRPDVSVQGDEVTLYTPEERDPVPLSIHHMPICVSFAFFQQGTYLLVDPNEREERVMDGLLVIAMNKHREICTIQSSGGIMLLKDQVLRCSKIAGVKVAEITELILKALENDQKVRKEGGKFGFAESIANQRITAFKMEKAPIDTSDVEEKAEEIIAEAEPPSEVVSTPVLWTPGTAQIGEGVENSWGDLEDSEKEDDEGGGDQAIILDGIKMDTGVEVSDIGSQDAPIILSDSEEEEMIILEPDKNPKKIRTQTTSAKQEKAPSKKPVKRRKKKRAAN
UniProt Q9NQT4: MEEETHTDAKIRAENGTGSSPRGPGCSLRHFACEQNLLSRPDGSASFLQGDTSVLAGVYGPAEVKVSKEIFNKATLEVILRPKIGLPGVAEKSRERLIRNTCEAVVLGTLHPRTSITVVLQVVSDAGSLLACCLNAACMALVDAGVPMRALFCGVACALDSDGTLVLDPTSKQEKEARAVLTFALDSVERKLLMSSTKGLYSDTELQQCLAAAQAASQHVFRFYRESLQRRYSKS

Measured: binding

B1: DIS3 (protein, UniProt Q9Y2L1 1-958)
chain: MLKSKTFLKKTRAGGVMKIVREHYLRDDIGCGAPGCAACGGAHEGPALEPQPQDPASSVCPQPHYLLPDTNVLLHQIDVLEDPAIRNVIVLQTVLQEVRNRSAPVYKRIRDVTNNQEKHFYTFTNEHHRETYVEQEQGENANDRNDRAIRVAAKWYNEHLKKMSADNQLQVIFITNDRRNKEKAIEEGIPAFTCEEYVKSLTANPELIDRLACLSEEGNEIESGKIIFSEHLPLSKLQQGIKSGTYLQGTFRASRENYLEATVWIHGDNEENKEIILQGLKHLNRAVHEDIVAVELLPKSQWVAPSSVVLHDEGQNEEDVEKEEETERMLKTAVSEKMLKPTGRVVGIIKRNWRPYCGMLSKSDIKESRRHLFTPADKRIPRIRIETRQASTLEGRRIIVAIDGWPRNSRYPNGHFVRNLGDVGEKETETEVLLLEHDVPHQPFSQAVLSFLPKMPWSITEKDMKNREDLRHLCICSVDPPGCTDIDDALHCRELENGNLEVGVHIADVSHFIRPGNALDQESARRGTTVYLCEKRIDMVPELLSSNLCSLKCDVDRLAFSCIWEMNHNAEILKTKFTKSVINSKASLTYAEAQLRIDSANMNDDITTSLRGLNKLAKILKKRRIEKGALTLSSPEVRFHMDSETHDPIDLQTKELRETNSMVEEFMLLANISVAKKIHEEFSEHALLRKHPAPPPSNYEILVKAARSRNLEIKTDTAKSLAESLDQAESPTFPYLNTLLRILATRCMMQAVYFCSGMDNDFHHYGLASPIYTHFTSPIRRYADVIVHRLLAVAIGADCTYPELTDKHKLADICKNLNFRHKMAQYAQRASVAFHTQLFFKSKGIVSEEAYILFVRKNAIVVLIPKYGLEGTVFFEEKDKPNPQLIYDDEIPSLKIEDTVFHVFDKVKVKIMLDSSNLQHQKIRMSLVEPQIPGISIPTDTSNMDLNGPKKKKMKLGK
no binding: all assays above

Source: publication PMC9410898
